Experimental data published in PubChem BioAssay AID686971 (National Center for Advancing Translational Sciences (NCATS), 2013).
In all, about 360,000 compounds went through this assay and about 7,500 (2.1%) were called active. Inconclusive means that the source gave no clear call. Such entries were picked first, then a sample of the others. Calls come from the whole dose curve; as a rule, active = well fitted cell-killing curve with a large enough effect; inconclusive = small, poorly fitted or top-dose-only effect, or effect the other way, or another doubt; inactive = no such curve, though single readings can be large or run the other way. No potency is given beside an inconclusive call; the fits are too rough.

assay: qHTS for induction of synthetic lethality in tumor cells producing 2HG: qHTS for the HT-1080-IDH1KD cell line; settings: HT-1080 IDH1 knockdown viability, ATP luminescence, 48 h; activity, negative = toxicity: at 46.1 µM (top of the series) unless noted;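 for activity, negative = toxicity: 0% = DMSO wells and -100% = cell-free medium wells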
Method in brief: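 Luminescent ATP read-out (CellTiter-Glo, 10 min at room temperature) after 48 h compound exposure at 37 °C gave viability of IDH1-knockdown HT-1080 cells. Activity was normalised to DMSO and cell-free wells, then fitted as concentration-response curves.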
Potency is the fitted concentration of half-maximal effect; tags give direction and shape of the fitted curve.

SMILES	Potency	activity, negative = toxicity
COc1ccc(C2=NOC(COc3ccc4c(C)cc(=O)oc4c3)C2)c(OC)c1 (stereo not given)	active: 5.8 µM	–
CCOC(=O)c1c(C)[nH]c(C)c1S(=O)(=O)NC(CC)CN1CCOCC1 (stereo not given)	inactive	–
COc1ccccc1-c1cc(NC=O)c2ncc(-c3cccc(C(C)=O)c3)n2c1	inconclusive [cytotoxic, single point]	–
Cc1nn(-c2ccc(F)cc2)c(C)c1NS(=O)(=O)c1ccc2ccccc2c1	inconclusive [cytotoxic, single point]	–
CCCCNS(=O)(=O)c1ccc2nc(SCC(=O)Nc3ccccc3Cl)[nH]c2c1	inconclusive [cytotoxic, single point]	–
CCN(CC)CCNC(=O)c1ccc(NC(=O)c2ccccc2-c2ccc(C(F)(F)F)cc2)cc1	active: 18.4 µM	–
COc1ccc(/C=C2/CSC/C(=C/c3ccc(OC)c(OC)c3)C2=O)cc1OC	active: 5.8 µM	–
Cc1cc2nc(-c3ccc(SCc4ccc(C(=O)O)cc4)nc3)[nH]c2cc1C	inconclusive [cytotoxic, single point]	–
CC1(C)CC(=O)C(=Cc2cn(-c3ccccc3)nc2-c2ccc(Cl)cc2)C(=O)C1	inconclusive [rising, partial curve, poor fit]	–
CSc1ccccc1OCc1cc(C(=O)NCCN2CCCc3ccccc32)no1	active: 11.6 µM	–
O=S(=O)(Cc1ccc(Cl)cc1Cl)c1ccc(Cl)cc1	inconclusive [cytotoxic, full curve]	–
Cc1cc(Nc2ccc3c(c2)OCCO3)c2cccc(C)c2n1	inconclusive [cytotoxic, partial curve]	–
Cc1ccc2nc(/N=C(\N)NC(=O)NC3CCCCC3)nc(C)c2c1	active: 23.1 µM	–
COc1ccc(Br)cc1C(=O)Nc1ccc(Cc2ccncc2)cc1	inconclusive [cytotoxic, single point]	–
O=C(Nc1ccccc1)OCC(CN1CCCCC1)OC(=O)Nc1ccccc1 (stereo not given)	inactive	–
Cc1c(C(=O)OCC(C)C)[nH]c2c1C(=O)CC(c1cccs1)C2 (stereo not given)	active: 1.3 µM	–
COc1cc(Nc2c3c(nc4ccccc24)CCCC3)cc(OC)c1OC	inconclusive [cytotoxic, single point]	–
Fc1ccccc1CN1CCCC(NC2CCC2)C1 (stereo not given)	inconclusive [cytotoxic, single point]	–
O=C(Nc1ccc(-c2nc3ccccc3[nH]2)cc1)c1ccc2c(c1)OCO2	inconclusive [cytotoxic, single point]	–
Cc1ccc2c(c1)Oc1ccc(NC(=O)CCl)cc1C(=O)N2	active: 2.91 µM	–
O=C(Nc1ccccn1)c1onc2c1CCCC2	inconclusive [cytotoxic, single point]	–
COc1ccc(NC(=O)Cc2c(F)cccc2Cl)cc1	inactive	–
CN(C)c1ccc(/C=N/N2C(=S)SC(C)(C)C2N(O)C(=O)Nc2ccc([N+](=O)[O-])cc2)cc1 (stereo not given)	inconclusive [cytotoxic, single point]	–
CC1(C(=O)NCC2CCOCC2)Cc2c(-c3cccc(C(F)(F)F)c3)ccnc2O1 (stereo not given)	active: 3.66 µM	–

SMILES	Potency	activity, negative = toxicity
O=C(NNC(=O)c1cc(Br)c(Br)s1)c1csc(N2CCOCC2)n1	inconclusive [cytotoxic, single point]	–
COc1ccc(-c2cc(CNc3nc(NCc4ccccc4OC)nc4ccsc34)on2)cc1	active: 14.6 µM	–
COc1cccc(C2C(C(=O)c3cccs3)=C(O)C(=O)N2c2cc(C)on2)c1 (stereo not given)	inactive	–
CCc1c(C)nc2ncnn2c1N1CCC(C(=O)Nc2cccc(C(C)=O)c2)CC1	inconclusive [cytotoxic, single point]	–
CCN1CCN(Cc2cccc(Oc3ccc(Cl)cc3)c2)CC1	inconclusive [cytotoxic, single point]	–
O=C(CCc1ccccc1)NC(c1cccs1)c1cc(Cl)c2cccnc2c1O (stereo not given)	inconclusive [cytotoxic, full curve]	–
O=[N+]([O-])c1ccc(/C=N/n2cnc3ccccc32)s1	inconclusive [cytotoxic, single point]	–
Cn1ccnc1C(=O)c1cc(SCC(=O)NCc2ccccc2)nc2ccccc12	inconclusive [cytotoxic, full curve]	–
Cn1c(=O)c2c(nc(NCc3ccc4c(c3)OCO4)n2Cc2ccc(F)cc2)n(C)c1=O	inconclusive [cytotoxic, single point]	–
CC(=NCCN1CCN(C(C)=C2C(=O)c3ccccc3C2=O)CC1)C1=C(O)CC(C)(C)CC1=O	inactive	–
Nc1nc(C2CC2)c(Sc2sc(N)nc2C2CC2)s1	inconclusive [cytotoxic, partial curve]	–
Cc1cccc(-c2cccc(NC(=O)C3CCCN(Cc4cccnc4)C3)c2)c1 (stereo not given)	–	inconclusive: -30.9% [cytotoxic]
CC(C)C[C@@H]1Cc2[nH][nH]c(=O)c2[C@H](C(C)C)O1	inconclusive [cytotoxic, single point]	–
OC(COc1cccc2ccccc12)CN1CCN(c2ccccc2)CC1 (stereo not given)	inactive	–
CCN(CC)CCN1CCN(c2cncc(-c3ccc4ccccc4c3)n2)CC1	active: 16.4 µM	–
COc1ccc2c(c1)C(CC(=O)NN)CCC2 (stereo not given)	active: 1.64 µM	–
O=C(c1ccc(Cl)cc1)C1CCN(C(=O)NC2CCCCC2)CC1	inconclusive [cytotoxic, single point]	–
CC1(C)CC(N=c2cc(-c3ccccc3)oc3ccc(Cl)cc23)CC(C)(C)N1	active: 16.4 µM	–
CC(=O)N1CCCC(C)(C(=O)Nc2cccc(OC(C)C)c2)C1 (stereo not given)	inactive	–
COc1cc(C(=O)Oc2c(CN3CCOCC3)cc(Cl)c3cccnc23)cc(OC)c1OC	inconclusive [cytotoxic, partial curve]	–
COc1ccc(CNc2ccc3c(c2)ncn3C)cc1OC	active: 16.4 µM	–
COc1ccc(N2CCN(C(=S)Nc3cc(C)ccc3C)CC2)cc1	–	inactive: 15.7% [at 9.24 µM]
NS(=O)(=O)c1ccc(CCNC(=O)c2cc(-c3ccc(Br)cc3)nc3ccccc23)cc1	inconclusive [cytotoxic, single point]	–
O=C(C[C@H]1C[C@H](C(=O)N2CCOCC2)[C@@]2(CCC3CCCC3)c3[nH]c4cc(-c5ccco5)ccc4c3CCN2C1=O)NCc1cccc(C(F)(F)F)c1	inconclusive [cytotoxic, single point]	–

SMILES	Potency	activity, negative = toxicity
CC(C)n1cnc2c(Nc3cccc(Cl)c3)nc(NCCCO)nc21	inconclusive [cytotoxic, partial curve]	–
O=[N+]([O-])c1ccc(-c2nn(-c3ccccc3)cc2/C=N/n2c(-c3ccncc3)n[nH]c2=S)cc1	inactive	–
COc1cc2nc3n(c(=O)c2cc1OC)-c1cc2ccccc2cc1C(=O)NC3CC(C)C (stereo not given)	–	inconclusive: -30.6% [cytotoxic]
CCOC(=O)c1c(NC(=O)Cn2cnc([N+](=O)[O-])n2)sc2c1CCC(C)C2 (stereo not given)	inconclusive [cytotoxic, single point]	–
N#CC(c1ccc(Cl)cc1)c1ccc2c(C(F)(F)F)cc(C(F)(F)F)nc2n1 (stereo not given)	active: 14.6 µM	–
Cc1c(C(=O)N2CCC(C)CC2)oc2ccc3c(c12)C(O)CC1(CCCCC1)O3 (stereo not given)	active: 9.2 µM	–
COc1ccc(S(=O)(=O)N(CCc2ccccc2)CC(=O)N2CCOCC2)cc1	–	inconclusive: -6.1% [cytotoxic]
CCc1cc(=O)oc2c(C)c(OCC(=O)N3CCCc4ccccc43)ccc12	inconclusive [cytotoxic, partial curve]	–
Fc1ccccc1-c1ccc(-c2nc3ccc(Cl)cn3c2Nc2ccc(Cl)cc2)o1	inconclusive [cytotoxic, single point]	–
O=C(NCc1ccco1)c1cc2cc3ccc(Cl)cc3nc2o1	inconclusive [cytotoxic, single point]	–
Fc1ccc2[nH]c3c(N4CCN(c5ccccc5)CC4)ncnc3c2c1	active: 20.6 µM	–
Cc1ccc(-c2nc(C#N)c(N3CCC(C(N)=O)CC3)o2)cc1	inactive	–
CCOc1ccc(-c2nc(N)ncc2Oc2ccc(OC)cc2)c(O)c1	inconclusive [cytotoxic, partial curve]	–
COc1ccccc1N(CC(=O)N/N=C/c1c(O)ccc2ccccc12)S(C)(=O)=O	inconclusive [cytotoxic, partial curve]	–
CO/N=C(/CS(=O)(=O)c1ccc(Br)cc1)c1ccc(OC)cc1	inconclusive [cytotoxic, single point]	–
COc1ccc(-c2[nH]n(-c3ccc([N+](=O)[O-])cc3)c(=O)c2C=NCc2ccncc2)cc1	inconclusive [cytotoxic, single point]	–
Clc1ccc2c(c1)-c1ccccc1C1=NCCN12	active: 18.4 µM	–
Cc1ccc(OCC(O)CN2C(=O)NC(C)(C)C2=O)c(C)c1 (stereo not given)	inactive	–
CC(Sc1nc(-c2ccccc2)cc(C(F)(F)F)n1)C(=O)O (stereo not given)	inactive	–
COC(=O)N1C2CCCCC2=NN(c2ccccc2)N1C(=O)OC (stereo not given)	inconclusive [cytotoxic, partial curve]	–
Cc1ccc(O)c(N=Cc2cc(Cc3ccccc3)cc([N+](=O)[O-])c2O)c1	inconclusive [cytotoxic, single point]	–
c1ccc(CNc2c(-c3cccc(SC4CCCCC4)c3)nc3ccccn23)cc1	inconclusive [cytotoxic, single point]	–
